In PubChem BioAssay (NCI) one finds TGI and GI50 data, which are given here for 4 molecules.

Some test systems named below: NCI-H226 lung; SK-MEL-28 melanoma; MOLT-4 leukemia; SN12C renal; K-562 leukemia; OVCAR-8 ovarian; LOX IMVI melanoma; TK-10 renal; T-47D breast; HL-60(TB) leukemia; U251 CNS; UO-31 renal; M14 melanoma; A549 NSCLC; NCI/ADR-RES ovarian; KM12 colon; CAKI-1 renal; HCT-116 colon; UACC-62 melanoma; HOP-92 NSCLC; SF-295 CNS; SF-539 CNS; COLO 205 colon.
Holding throughout (assay): NCI anticancer screen, dose series, 48 h

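Each compound was tested at five concentrations against cells in 96-well plates for 48 hours. GI50: concentration for 50% inhibition of growth.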 For part of its entries the source gives two or more results. The list is limited to them. There may be further records. For part of these data: A record mostly stands for its own series of concentrations, not given here; a value can be the end of its range. For part of these data: The records of an entry repeat one measurement (runs, samples, wells, individuals or studies). Records carry a tag for their origin. The letters are not those of the source and start again with each entry.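 TGI denotes the concentration required for complete inhibition of growth.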

For the molecule `C=C/C=C/[C@@H](O)CC(=C)C[C@H]1OC2[C@H](C)[C@@H](OC(=O)C[C@H]3C[C@H](OC(C)=O)C[C@@]4(C[C@@](C)(O)C[C@H](CC(=C)[C@@H](C)[C@H](OC(C)=O)[C@H](C)C(=O)C[C@@H]5C[C@H](OC)CC6(C[C@@H](O)C[C@H](/C=C\CCC[C@H]7O[C@](O)(C=C[C@H]7C)[C@H]2O)O6)O5)O4)O3)[C@@H]1O`, the TGI is 34.3 nM [1 test] and 8.88 µM [mean of 2 tests] in the test with NCI-H226 lung; 2.19 nM [1 test] and > 25 µM [mean of 2 tests] in the test with MOLT-4 leukemia; 7.02 nM [1 test] and > 9.66 µM [mean of 2 tests] with SN12C renal; 9.81 nM [1 test] and > 25 µM [mean of 2 tests] in the test on OVCAR-8 ovarian; 23.6 nM [1 test] and > 11.1 µM [mean of 2 tests] in the test on LOX IMVI melanoma; 8.3 nM [1 test] and > 23.9 µM [mean of 2 tests] in the test with TK-10 renal. In addition, the TGI in the test with HL-60(TB) leukemia was 1.94 nM [1 test] and 5.88 µM [mean of 2 tests]; in the test with A549 NSCLC, 0.833 nM [1 test] and > 25 µM [mean of 2 tests]; with KM12 colon, 3.85 nM and > 25 µM; in the test with CAKI-1 renal it was 68.4 nM [1 test] and > 15.7 µM [mean of 2 tests]; with UACC-62 melanoma, 0.318 nM [1 test] and > 25 µM [mean of 2 tests]. For the same molecule, the GI50 was 0.238 nM and 2.5 nM in the test on SK-MEL-28 melanoma; 0.045 nM [1 test] and 2.5 nM [mean of 2 tests] in the test on MOLT-4 leukemia; 0.0737 nM [1 test] and 2.5 nM [mean of 2 tests] in the test on K-562 leukemia; 0.0985 nM [1 test] and 2.5 nM [mean of 2 tests] in the test with LOX IMVI melanoma; 0.524 nM and 13.3 µM in the test on T-47D breast; 0.016 nM [1 test] and 2.5 nM [mean of 2 tests] in the test on HL-60(TB) leukemia. In addition, the GI50 was 0.12 nM [1 test] and 2.5 nM [mean of 2 tests] with U251 CNS; 26.3 nM [1 test] and 2.5 nM [mean of 2 tests] in the test on UO-31 renal; 0.195 nM [1 test] and 2.5 nM [mean of 2 tests] with M14 melanoma; 0.155 nM [1 test] and 2.5 nM [mean of 2 tests] in the test on A549 NSCLC; 42.4 nM [1 test] and 4.1 nM [mean of 2 tests] with NCI/ADR-RES ovarian; 0.0512 nM [1 test] and 2.5 nM [mean of 2 tests] in the test on HCT-116 colon. The GI50 in the test on UACC-62 melanoma is 0.0273 nM [1 test] and 2.5 nM [mean of 2 tests].

For the molecule `CC(N)(Cc1c[nH]c2cccc(F)c12)C(=O)O` (stereo not given), in the test with HOP-92 NSCLC, the GI50 is 35.8 µM and > 1 mM.

With `CC(C)(C)C1CCC2c3c([nH]c4ccccc34)C3C(=O)N(c4ccc(Cl)cc4)C(=O)C3C2C1` (stereo not given), in the test with SF-295 CNS, the GI50 was > 100 µM [sample A, 1 test] and 36.1 nM [sample B, 1 test]; the TGI was > 100 µM [sample A, 1 test] and 1.07 µM [sample B, 1 test].

For the molecule `O=C1CC(c2cccc(F)c2)Nc2cc3c(cc21)OCO3` (stereo not given), the TGI is 200 nM and > 100 µM with NCI-H226 lung; 121 nM and > 100 µM in the test with SF-539 CNS; 195 nM and > 100 µM in the test on COLO 205 colon.
